Experimental data published in article PMC4336329 (PLoS ONE, 2015).
Out of some 310,000 compounds screened, about 14,000 (4.5%) showed an effect of 50% or more. The effect is printed as a negative number. Some of the results follow.

Target: human ether-à-go-go-related gene (hERG) potassium channel (human, UniProt Q12809)
Test: primary screen, population patch clamp on CHO cells stably expressing hERG
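Further: peak tail current of the secondary pulse compared with the same well before compound.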

Chain of human ether-à-go-go-related gene (hERG) potassium channel (Q12809 whole entry, looked up): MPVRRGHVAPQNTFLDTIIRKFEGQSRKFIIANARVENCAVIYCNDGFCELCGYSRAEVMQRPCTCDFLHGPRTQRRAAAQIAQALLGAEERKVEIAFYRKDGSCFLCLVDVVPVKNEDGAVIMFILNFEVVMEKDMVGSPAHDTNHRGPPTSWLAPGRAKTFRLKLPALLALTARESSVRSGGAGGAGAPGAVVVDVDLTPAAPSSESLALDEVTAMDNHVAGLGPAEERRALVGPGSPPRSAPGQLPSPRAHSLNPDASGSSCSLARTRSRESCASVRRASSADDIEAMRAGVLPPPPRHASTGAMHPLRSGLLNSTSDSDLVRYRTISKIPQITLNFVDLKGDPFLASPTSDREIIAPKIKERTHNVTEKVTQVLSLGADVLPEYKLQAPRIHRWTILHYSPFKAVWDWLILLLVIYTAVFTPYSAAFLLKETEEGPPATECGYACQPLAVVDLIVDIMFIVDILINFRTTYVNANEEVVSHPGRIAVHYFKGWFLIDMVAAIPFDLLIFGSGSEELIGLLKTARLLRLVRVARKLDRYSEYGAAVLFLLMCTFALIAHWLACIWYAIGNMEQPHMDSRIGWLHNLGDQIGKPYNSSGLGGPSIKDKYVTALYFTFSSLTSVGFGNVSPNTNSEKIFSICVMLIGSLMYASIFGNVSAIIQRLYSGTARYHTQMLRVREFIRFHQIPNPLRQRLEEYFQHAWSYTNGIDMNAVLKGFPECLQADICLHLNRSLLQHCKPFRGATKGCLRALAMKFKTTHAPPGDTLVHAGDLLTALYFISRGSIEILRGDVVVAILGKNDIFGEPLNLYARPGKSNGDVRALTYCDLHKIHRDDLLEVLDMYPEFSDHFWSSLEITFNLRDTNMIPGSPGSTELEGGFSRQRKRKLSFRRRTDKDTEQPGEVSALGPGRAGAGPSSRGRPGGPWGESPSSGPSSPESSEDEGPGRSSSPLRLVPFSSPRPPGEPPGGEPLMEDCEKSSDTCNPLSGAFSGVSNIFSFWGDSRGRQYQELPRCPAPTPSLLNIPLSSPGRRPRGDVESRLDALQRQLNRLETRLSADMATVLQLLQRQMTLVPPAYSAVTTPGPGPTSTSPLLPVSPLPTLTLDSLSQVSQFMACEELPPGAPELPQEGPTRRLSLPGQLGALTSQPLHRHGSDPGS

SMILES	hERG current change (%, negative = inhibition) at 10uM
Cc1ccc(C(=O)N=c2sccn2C)cc1C	-5.78%
O=C(NNc1nc2ccccc2s1)C1CC1	1.39%
COc1cc(COCC(O)CN2CCN(CCN3C(=O)c4cccc5cccc(c45)C3=O)CC2)cc(OC)c1OC.Cl (stereo not drawn)	-62%
O=C(Cc1ccc(F)cc1)OCn1nnc2ccccc2c1=O	10.8%
CSCC(CO)NS(=O)(=O)c1ccc(C)cc1 (stereo not drawn)	3.61%
Cc1ccc(S(=O)(=O)Nc2cc(C(C(=O)OC(C)C)C(=O)C(F)(F)F)c(O)c3ccccc23)c(C)c1 (stereo not drawn)	13.3%
Cc1ccccc1NS(=O)(=O)c1ccc(C(=O)N2CC(C)OC(C)C2)cc1 (stereo not drawn)	8.78%
O=C(COC(=O)c1cccc(S(=O)(=O)N2CCc3ccccc32)c1)Nc1ccc(Cl)cn1	5.99%
CCOC(=O)N1CCC(Nc2c(-c3ccccc3)c(=O)c2=O)CC1	-23.2%
O=C(NCCc1c[nH]c2ccc(Cl)cc12)c1cccnc1	2.88%
Cc1ccc(O)c(C(=O)c2cc(C(=O)NCc3ccccc3)c(=O)n(Cc3ccccc3)c2)c1	-12.1%
COc1cccc(CN(C)C(=S)Nc2ccc(C)c(C)c2)c1	2.74%
CCOC(=O)N1CCC(NC(=O)c2cccc3c2C(=O)N(Cc2cccnc2)C3)CC1	-13.9%
O=C(CSc1ccc(-c2cccnc2)nn1)Nc1ccccc1	-22.9%
CC(=O)c1ccc(NC(=O)Nc2ccc(S(=O)(=O)N3CCCC3)cc2)cc1	14%
O=C(Nc1ccc2cccnc2c1)c1ccc(Br)cc1	17.4%
COc1ccccc1CNC(=O)CCNS(=O)(=O)c1ccc2c(c1)oc(=O)n2C	13.5%
Cc1cc(C)cc(N(CC(=O)NCC2CCCO2)C(=O)CN2C(=O)COc3ccccc32)c1 (stereo not drawn)	-34.8%
Cc1cccc(N2C(=O)NC(=O)/C(=C\C=C\c3ccco3)C2=O)c1	-7%
COc1ccccc1Oc1ccc(NC(=O)c2ccccc2C)cc1	19.6%
Cc1nn(-c2ccccc2)c(Cl)c1C(=O)NCCCCNC(=O)c1c(C)nn(-c2ccccc2)c1Cl	-2.76%
COc1cc(C(=O)NC(C)Cc2cccs2)cc(OC)c1OC (stereo not drawn)	-26.7%

SMILES	hERG current change (%, negative = inhibition) at 10uM
COc1cc(C2c3sc(=O)[nH]c3SC3C(=O)N(c4ccc(Br)cc4)C(=O)C32)ccc1O (stereo not drawn)	-3.19%
CCOc1ccc(C(=O)N[C@H](C(=O)O)C(C)C)cc1	7.22%
COc1cc(O)oc1C=Nc1ccc(Cl)cc1Cl	-4.38%
O=C(O)C1CCN(c2nc(-c3ccccc3)nc3c2oc2ccccc23)CC1	-9.06%
COc1ccc(NC(=O)CN(C)CC(=O)Nc2ccc(Cl)cc2[N+](=O)[O-])cc1	-48%
Cc1ccc(-c2nc(SCC(=O)N(C)c3c(N)n(Cc4ccccc4)c(=O)[nH]c3=O)n[nH]2)cc1	23.6%
CCOc1cccc(C2c3c(oc4ccccc4c3=O)C(=O)N2c2ccccn2)c1 (stereo not drawn)	1.85%
Cc1ccc(C)c(S(=O)(=O)N2CCN(C(=O)c3ccccn3)CC2)c1	-0.682%
CN(C)CCCN(C(=O)C1COc2ccccc2O1)c1nc2cc3c(cc2s1)OCO3.Cl (stereo not drawn)	-64.4%
CCn1nc(C)cc1C(=O)N1CCCC(N2CCN(c3ccccc3OC)CC2)C1 (stereo not drawn)	-5.6%
COc1ccc(CN(CC2CCCO2)C(=O)c2cc3ccccc3oc2=O)cc1 (stereo not drawn)	7.96%
Cc1nnc(SCc2ccc(F)cc2)s1	3.71%
O=C(Cn1cc2c(n1)CCCCC2)Nc1c(F)c(F)cc(F)c1F	9.2%
Cc1oc(-c2ccccc2)cc1C(=O)Nc1cccc(C(=O)O)c1	3.78%
COc1ccc(C2CC(c3ccccc3OC(C)=O)=NN2C(=O)/C=C/c2ccccc2)cc1 (stereo not drawn)	-1.23%
CC1CN(S(=O)(=O)c2ccc(C(=O)OCc3ccc(C#N)cc3)cc2)CC(C)O1 (stereo not drawn)	-3.58%
CSc1ccc(C2N=C(c3ccccc3)NO2)cc1 (stereo not drawn)	13.9%
Cc1cc(C)c(C(=O)C(C)OC(=O)c2ccc(Cl)nc2)cc1C (stereo not drawn)	12.2%
Cc1cccc(C)c1NC(=O)CC(NCc1ccco1)C(=O)O (stereo not drawn)	20.5%
Cc1ccccc1-n1cnc2cc(NCc3cccs3)ccc21	-31%
COc1cc([N+](=O)[O-])cc(/C=N/NC(=O)Cn2nc(C)cc2C)c1O	17.5%
CC(=O)N1CCN(Cc2nc3cc(NC(=O)c4ccccc4Cl)ccc3n2C)CC1	-20.8%

SMILES	hERG current change (%, negative = inhibition) at 10uM
CCCCC(=O)Nc1ccc(C(=O)c2ccccc2)cc1	-6.24%
Cc1nn(-c2ccccc2)c(Cl)c1/C=N/NC(=O)c1nn(C)cc1[N+](=O)[O-]	1.53%
O=C(CCCn1c(=O)[nH]c2cc(Cl)ccc2c1=O)NCCCN1CCN(c2ccc(F)cc2)CC1	-64.9%
CN(C)C(=O)Cn1c(=O)n(C)c2ccccc21	6.59%
CN1CCN(CCNC(=O)Nc2ccccc2C(F)(F)F)CC1	3.26%
CCOc1ccc(CCNS(=O)(=O)c2ccc3c(c2)NC(=O)CC(=O)N3)cc1OCC	12.4%
CCOC(=O)C1(CCOc2ccccc2)CCN(Cc2cc(OC)c(O)cc2Cl)CC1	-69.2%
COc1ccc(NC(=S)N/N=C/c2ccc(F)c(F)c2)cc1	7.65%
CCOc1ccc(CN2CCNC(=O)C2CC(=O)N(C)C2CCCCC2)cc1 (stereo not drawn)	6.66%
C[C@@H](CN1CCC(Cc2ccccc2)CC1)[C@@H](O)c1ccc(O)cc1.Cl	-71.3%
CN(c1ccccc1)S(=O)(=O)c1cccc(NC(=O)Cn2cnc3c2c(=O)n(C)c(=O)n3C)c1	-52.6%
Cc1ccc(N(C(=O)Cn2nnc(-c3ccc(F)cc3)n2)C(C(=O)NC(C)(C)C)c2ccncc2)cc1 (stereo not drawn)	-42.1%
CSc1ccccc1NC(=O)CSCc1ccc(Br)cc1	5.69%
Cc1cccn2c(=O)c3cc(C(=O)NC4CCCCC4)c(=N)n(CCN4CCOCC4)c3nc12	-87%
COc1ccc(N=C2C(=Nc3ccc(OC)cc3)N(c3ccc(OC)cc3)C(=S)N2C(=O)c2ccc(OC)cc2)cc1	-15.1%
CC(C)(C)NS(=O)(=O)c1ccc(CCC(=O)N2CCCC2)cc1	19.8%
COc1ccc(S(=O)(=O)NC2CC(C)(C)NC(C)(C)C2)cc1C(C)C	-15.1%
COCCNc1nc(C)cc(-c2cc(C(=O)NC3CCCC3)on2)n1	-0.263%
O=C1C2CC=C(Cl)CC2C(=O)N1CN(Cc1ccco1)CN1C(=O)C2CC=C(Cl)CC2C1=O (stereo not drawn)	8.81%
COc1ccccc1/C=C/C(=O)N1CCCC1	0.997%
CN(C)C(=O)c1cc(Br)ccc1Cl	8.23%
O=C(CCC(=O)N1CCOc2ccccc21)Nc1ccc(F)cc1F	-7.25%

SMILES	hERG current change (%, negative = inhibition) at 10uM
Cc1cc(=O)[nH]c(SCC(=O)Nc2ccc(Cl)cn2)n1	18.5%
COc1cc(C2NC(=O)NC(C)=C2C(=O)OCc2ccc(C)cc2)cc(OC)c1O (stereo not drawn)	-14.6%
CCOC(=O)c1[nH]c(C)c(C(=O)OCC(=O)N2CCc3ccccc32)c1C	6.23%
Cc1ccc2c(CN3CCN(Cc4ccccc4)CC3)cc(=O)oc2c1C	-55.3%
O=C(CN1CCN(c2ccccc2)CC1)NC(=O)NCc1ccco1	9.72%
O=C(Nc1ccccc1OC(F)F)C1CC(=O)N(Cc2ccccc2)C1 (stereo not drawn)	10%
COCc1nnc(NC(=O)CS(=O)(=O)Cc2ccccc2)s1	20.4%
CCCn1nc(NS(=O)(=O)c2ccccc2)c2cc3ccccc3nc21	0.823%
CCOC(=O)CCSc1nc(C)c2cc(C)ccc2n1	3.63%
CC1=NN(C(=O)c2ccc(Br)cc2)C(O)(c2ccccc2)C1 (stereo not drawn)	0.159%
N#CCc1cccnc1Sc1ccc(Cl)cc1	4.17%
CN(C)CCCNCCNC(=O)/C=N\O.Cl	-65.4%
O=C(O)c1ccccc1-c1ccccc1C(=O)Nc1cccc(O)c1	20.2%
Cc1cccc(NC(=S)NNC(=O)c2csc(C(C)C)c2)c1	2.52%
CCCCN(C(=O)c1cc(CC)c(C)s1)c1c(N)n(CCC)c(=O)[nH]c1=O	-20.8%
CCN(CC)S(=O)(=O)c1ccc2c(c1)c(=O)c(C(=O)NCc1cccs1)cn2C	-2.97%
CCOc1ccc(OCCC(=O)N2CCN(S(=O)(=O)c3ccc(OCC)cc3)CC2)cc1	-6.09%
COC(=O)C1CCN(C(=O)c2ccc3nccnc3c2)CC1	27.6%
Fc1ccc(NC(=S)NCc2ccccc2Cl)cc1	8.57%
CCC(=O)Nc1nnc(SCc2cccc(F)c2)s1	6.2%
CCOc1ccc(N2C(=O)CC(N(Cc3ccco3)C(=O)CC)C2=O)cc1 (stereo not drawn)	-0.571%
